Hit rate of the full screen: of about 310,000 compounds, about 2,200 (0.71%) showed an effect of 50% or more. The effect is printed as a negative number. The list shows a part of the results.

Chain of human ether-à-go-go-related gene (hERG) potassium channel (Q12809 whole entry, looked up): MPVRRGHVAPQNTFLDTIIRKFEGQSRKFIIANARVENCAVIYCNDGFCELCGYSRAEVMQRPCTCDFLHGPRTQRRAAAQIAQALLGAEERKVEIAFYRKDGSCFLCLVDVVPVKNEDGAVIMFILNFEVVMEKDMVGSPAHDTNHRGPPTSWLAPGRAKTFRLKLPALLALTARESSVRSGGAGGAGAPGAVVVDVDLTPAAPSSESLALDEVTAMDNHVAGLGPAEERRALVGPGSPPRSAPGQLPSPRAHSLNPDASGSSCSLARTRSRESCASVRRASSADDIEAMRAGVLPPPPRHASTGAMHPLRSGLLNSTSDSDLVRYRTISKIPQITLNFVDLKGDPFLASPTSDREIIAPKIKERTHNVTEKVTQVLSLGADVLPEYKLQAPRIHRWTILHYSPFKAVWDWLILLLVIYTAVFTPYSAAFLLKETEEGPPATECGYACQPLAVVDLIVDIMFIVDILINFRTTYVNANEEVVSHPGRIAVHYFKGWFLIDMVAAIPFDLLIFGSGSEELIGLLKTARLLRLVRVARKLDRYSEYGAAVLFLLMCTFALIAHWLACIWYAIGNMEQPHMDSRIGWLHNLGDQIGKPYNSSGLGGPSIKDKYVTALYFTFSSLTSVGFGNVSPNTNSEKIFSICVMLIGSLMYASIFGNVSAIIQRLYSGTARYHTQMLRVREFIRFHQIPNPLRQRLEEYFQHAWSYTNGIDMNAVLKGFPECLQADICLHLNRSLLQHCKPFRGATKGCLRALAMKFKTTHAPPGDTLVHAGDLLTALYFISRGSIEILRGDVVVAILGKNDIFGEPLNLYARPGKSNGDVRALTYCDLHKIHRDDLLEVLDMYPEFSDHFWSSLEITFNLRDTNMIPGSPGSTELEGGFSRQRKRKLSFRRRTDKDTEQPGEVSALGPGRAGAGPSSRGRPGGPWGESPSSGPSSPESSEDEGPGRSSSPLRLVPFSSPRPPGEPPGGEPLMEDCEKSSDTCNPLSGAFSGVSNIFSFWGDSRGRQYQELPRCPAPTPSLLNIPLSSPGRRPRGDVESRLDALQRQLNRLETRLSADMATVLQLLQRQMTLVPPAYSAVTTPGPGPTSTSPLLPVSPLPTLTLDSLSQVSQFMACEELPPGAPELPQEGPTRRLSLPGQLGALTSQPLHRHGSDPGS

This assay has as its target human ether-à-go-go-related gene (hERG) potassium channel (human, UniProt Q12809). The assay is described as follows: primary screen, population patch clamp on CHO cells stably expressing hERG.
`CS(=O)(=O)c1ccc(N2CCOCC2)c(S(C)(=O)=O)c1`: the “hERG current change (%, negative = inhibition) at 1uM” value is -4.75%.
Take `COc1cccc(CNS(=O)(=O)c2c(C)[nH]c(C)c2C(=O)N2CCCC2)c1`: the “hERG current change (%, negative = inhibition) at 1uM” value was determined as 4.4%.
With `Cc1nc2ccc(S(=O)(=O)NC(C(=O)N3CCCCCC3)C(C)C)cc2s1` (stereo not shown), the “hERG current change (%, negative = inhibition) at 1uM” value worked out at 3.77%.
For `O=C(COC(=O)Cc1cccs1)Nc1ccc(F)c(F)c1F`, the “hERG current change (%, negative = inhibition) at 1uM” value stood at 18.8%.
With `CCOC(=O)c1cc(C#N)c(Oc2ccccc2OC)nc1-c1ccccc1`, the “hERG current change (%, negative = inhibition) at 1uM” value stood at 17%.
Under `CCCC(C(=O)NCc1ccccc1)N(C(=O)Cn1nnc(-c2cccs2)n1)c1ccc2c(c1)OCCO2` (stereo not shown) stands 19.2%.
For the compound `CCCC(c1nnnn1CCC(C)C)N1CCC(C(N)=O)CC1.Cl` (stereo not shown), the “hERG current change (%, negative = inhibition) at 1uM” value is 6.94%.
Consider `Cc1cccc(Nc2nc(N)c([N+](=O)[O-])c(NCCO)n2)c1`, for which the “hERG current change (%, negative = inhibition) at 1uM” value is given as -3.85%.
As for `COc1ccc(-c2nnc(SCc3nnc(-c4ccccc4)o3)n2-c2ccccc2)cc1`, the “hERG current change (%, negative = inhibition) at 1uM” value is listed as 0.184%.
Consider `CCCN1CCN(CCCNC(=S)Nc2ccc3nc(N4CCN(CC)CC4)cc(C)c3c2)CC1`, for which the “hERG current change (%, negative = inhibition) at 1uM” value is recorded as 13.3%.
Take `Cc1ccc(C(=O)n2nnc3ccccc32)cc1[N+](=O)[O-]`: the “hERG current change (%, negative = inhibition) at 1uM” value amounted to 18%.
Take `O=C(COc1ccccc1F)Nc1nnc(C2CCCC2)s1`: the “hERG current change (%, negative = inhibition) at 1uM” value was determined as 14.1%.
Regarding `COc1cccc(C(=O)COC(=O)CCCC(=O)NC2CCCCC2)c1`, the “hERG current change (%, negative = inhibition) at 1uM” value is reported as 10.6%.
For the compound `COc1ccc(C(=O)NCCn2cc(SCC(=O)NCC3CCCO3)c3ccccc32)cc1` (stereo not shown), the “hERG current change (%, negative = inhibition) at 1uM” value was -0.032%.
The same measure for `CSc1ccc(C2NC(=O)c3ccccc3N2)cc1` (stereo not shown): 10.4%.
Take `Cc1ccc2cc(CCNC(=O)c3cccs3)c(=O)[nH]c2c1C`: the “hERG current change (%, negative = inhibition) at 1uM” value was determined as 5.96%.
As for `CCOC(=O)c1nnn2c1nc(N1CCOCC1)c1ccccc12`, the “hERG current change (%, negative = inhibition) at 1uM” value is 10.7%.
As for `Br.CCn1c(=N)n(CC(=O)c2ccc(Br)s2)c2ccccc21`, the “hERG current change (%, negative = inhibition) at 1uM” value is -22%.
`Cc1cccc(-n2c(-c3ccncc3)n[nH]c2=S)c1`: the “hERG current change (%, negative = inhibition) at 1uM” value is 12.4%.
With `OCCN1CCN(Cc2ccc3ccccc3c2)CC1`, the “hERG current change (%, negative = inhibition) at 1uM” value worked out at 12.5%.
With `C=CCn1c(SCc2ccc(C(=O)O)cc2)nc2sc(C)c(C)c2c1=O`, the “hERG current change (%, negative = inhibition) at 1uM” value is 9.58%.
For `CCN(CC)S(=O)(=O)c1ccc(S(=O)(=O)N2CCC(C(=O)NC3CCN(Cc4ccccc4)CC3)CC2)cc1`, the “hERG current change (%, negative = inhibition) at 1uM” value was determined as 17.5%.
`Cc1ccc2oc(=O)c3cnn(CC(=O)NC4CCC(C)CC4)c3c2c1` (stereo not shown): the “hERG current change (%, negative = inhibition) at 1uM” value was determined as 4.33%.
Consider `CCOC(=O)C1=NN(C(=O)c2ccco2)C2(CC2)C1`, for which the “hERG current change (%, negative = inhibition) at 1uM” value is 5.08%.
As for `CCCCN(CCCNC(=O)c1ccc(CS(=O)(=O)c2c(Cl)cccc2Cl)o1)Cc1ccccc1`, the “hERG current change (%, negative = inhibition) at 1uM” value was -30.5%.
Turning to `O=C(Nc1ccc2c(c1)OCO2)C1CC(c2ccccc2O)=NO1` (stereo not shown), the “hERG current change (%, negative = inhibition) at 1uM” value was determined as 12.9%.
The same measure for `CSc1nc2ccc3nc(NC(=O)c4ccc(Cl)s4)sc3c2s1`: 8.38%; for `Cc1cccc(NC(=O)CSc2nnc(NC(=O)c3ccco3)s2)c1`: 10.7%.
On to `COc1cccc(NC(=O)N(CCCN2CCOCC2)C(C)c2cc3ccccc3o2)c1` (stereo not shown), for which the “hERG current change (%, negative = inhibition) at 1uM” value is listed as -33.4%.
Under `O=C(Cc1c[nH]c2ccccc12)NC1(C(=O)NC2CCCC2)CCCCC1` stands 14.1%.
Take `CC(C)c1nnc(-c2ccc(Cl)cc2)c(N(C)C)n1`: the “hERG current change (%, negative = inhibition) at 1uM” value is 9.61%.
With `Cc1cc(C(=O)COC(=O)c2ccc[nH]c2=O)c(C)n1C`, the “hERG current change (%, negative = inhibition) at 1uM” value was determined as 9.62%.
On to `CC(C)c1ccccc1NC(=S)NCc1ccncc1`, for which the “hERG current change (%, negative = inhibition) at 1uM” value came to 10.9%.
Take `COc1cc2c(cc1OC)CN(C(=O)CSc1nnc3scc(-c4ccccc4)n13)CC2`: the “hERG current change (%, negative = inhibition) at 1uM” value worked out at 5.24%.
Regarding `COc1ccccc1CNS(=O)(=O)c1cc(C)ccc1OC`, the “hERG current change (%, negative = inhibition) at 1uM” value is 12.8%.
As to `C=CCS/C(=N\n1cnc2ccccc2c1=O)N(CC)CC`, the “hERG current change (%, negative = inhibition) at 1uM” value came out at 14.2%.
Under `CC1Cc2ccccc2N1C(=O)C1CCN(S(=O)(=O)c2cccs2)CC1` (stereo not shown) stands 4.23%; under `CCN1C(=NCCN2CCOCC2)N[C@@H](c2ccccc2)C(C(=O)OC)=C1C`, 12.2%; under `CCn1c(COC(=O)CNC(=O)c2cc(OC)c(OC)c(OC)c2)nc2cc(S(=O)(=O)N(C)C)ccc21`, 6.22%.
Under `O=C(O)CCCC(=O)N1CCN(c2nc(-c3ccccc3Cl)c3cc(Br)ccc3n2)CC1` stands 6.08%.
As to `O=C(CNC(=O)c1cccs1)N/N=C/c1ccco1`, the “hERG current change (%, negative = inhibition) at 1uM” value is reported as 16.5%.
As for `COc1cc(N=C(N)N=C(N)N)cc(OC)c1`, the “hERG current change (%, negative = inhibition) at 1uM” value was found to be 11.1%.
Consider `Cc1ccc2c(N)[nH]nc2n1`, for which the “hERG current change (%, negative = inhibition) at 1uM” value turned out to be 16.8%.
Regarding `COc1ccc(OC)c(N2CC(O)=C(c3nc4ccccc4s3)C2=N)c1`, the “hERG current change (%, negative = inhibition) at 1uM” value is 1.8%.
Regarding `Cc1nnc(NC(=O)c2ccc(Br)cc2)s1`, the “hERG current change (%, negative = inhibition) at 1uM” value was found to be 12%.
`Cc1cc(C(F)(F)F)nn1CC(=O)NCc1cccs1`: the “hERG current change (%, negative = inhibition) at 1uM” value is recorded as 11.8%.
With `CCc1cccc(NC(=O)COC(=O)/C=C/c2cccs2)c1`, the “hERG current change (%, negative = inhibition) at 1uM” value was 11.6%.
Regarding `CC(C)OCC(O)Cn1c(N2CCCC2)nc2c1c(=O)[nH]c(=O)n2C` (stereo not shown), the “hERG current change (%, negative = inhibition) at 1uM” value was found to be 13.8%.
For `CCN(C(=O)CSc1nnc(C)n1-c1cccc(C)c1)C1CCS(=O)(=O)C1` (stereo not shown), the “hERG current change (%, negative = inhibition) at 1uM” value is listed as 2.88%.
On to `c1ccc2c(c1)nc(N1CCOCC1)c1ccccc12`, for which the “hERG current change (%, negative = inhibition) at 1uM” value is given as 4.22%.
As for `O=S(=O)(Nc1ccc(N2CCOCC2)cc1)c1ccc(Cl)s1`, the “hERG current change (%, negative = inhibition) at 1uM” value was 8.98%.
Regarding `NS(=O)(=O)c1ccc(NC(=O)/C=C/c2ccccc2[N+](=O)[O-])cc1`, the “hERG current change (%, negative = inhibition) at 1uM” value was 8.51%.
The same measure for `CC(=O)c1cccc(Nc2nc(-c3ccccc3)nc3ccccc23)c1.Cl`: 10.1%.
With `Cc1ccc2c(c1)N(CC(=O)NC(C)CCc1ccccc1)C(=O)c1cccnc1O2` (stereo not shown), the “hERG current change (%, negative = inhibition) at 1uM” value was -8.28%.
Under `CCOc1ccc(-n2c(Cc3cc(=O)[nH]c(=O)[nH]3)nnc2SCC(=O)OC)cc1` stands 8.93%; under `COc1ccc(NC(=O)c2ccc(N3C(=O)C4CC=C(Cl)CC4C3=O)cc2)cc1` (stereo not shown), 18%.
The same measure for `Cc1ccc(Oc2nnc(-c3cccs3)c3ccccc23)cc1`: -0.176%.
On to `COc1ccccc1NC(=O)Nc1ccnn1C1CCN(C(=O)c2cscn2)CC1`, for which the “hERG current change (%, negative = inhibition) at 1uM” value was 8.26%.

The values above are taken from publication PMC4336329 (PLoS ONE, 2015).
